# The list shows a part of the results. At the low end of the ranking the order means little.
# Biological target: T1, GST-Rok (full length) (UniProt O34857)
# T1 sequence: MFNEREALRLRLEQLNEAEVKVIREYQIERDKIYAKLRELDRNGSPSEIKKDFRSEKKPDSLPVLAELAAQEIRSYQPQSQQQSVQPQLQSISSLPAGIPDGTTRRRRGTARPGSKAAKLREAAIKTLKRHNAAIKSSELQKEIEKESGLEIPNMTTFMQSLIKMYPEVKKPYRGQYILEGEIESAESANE
# Assay: protein binding microarray;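 note: rank score from −0.5 (least bound) to 0.5 (best bound)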
# Settings: Rok is a gene silencer of Bacillus subtilis; high values mean tight binding; most listed sequences are background and not binding sites; double strand, one strand shown
row,Sequence,binding signal [E-score]
1,GAAGAAGA,-0.113
2,ACATGGTG,0.102
3,GGATGGTA,0.268
4,CGTGGGGA,-0.36
5,ACCGTTGA,0.0907
6,CACATATG,0.266
7,AGGCTGTA,0.00795
8,GTATCTCA,0.185
9,GGCGGTCA,-0.252
10,TCCTCAGA,-0.0248
11,GACTAGTA,0.365
12,ACCACTCG,-0.238
13,AGCGGACA,-0.166
14,ACTGAAGG,-0.276
15,AACGACCC,-0.282
16,CAGCAACA,0.13
17,GTAATACA,0.247
18,ATCGTATG,0.189
19,TAAACTAA,0.288
20,AATACCAA,0.0615
21,CTTGTCGA,-0.198
22,GCTCATAA,-0.0394
23,CAGCTCAC,-0.148
24,AAGCACTT,-0.128
25,GCCACACA,-0.0797

row,Sequence,binding signal [E-score]
1,CGATGGCC,-0.114
2,ATCCCTTC,-0.217
3,AGTTTTCA,0.0286
4,GAACTCGA,0.0522
5,AGCAATCA,0.238
6,GCTGACCC,-0.308
7,ACTTTACG,0.189
8,CTAAGGTC,-0.0306
9,CGGTGCTC,-0.237
10,ACTTGCAA,0.0887
11,GAACATGA,-0.0305
12,ATCGATAC,0.213
13,AATAGACT,0.0828
14,TAGTGAAA,0.156
15,ATTGCTGA,-0.177
16,AGGGTCAT,0.0363
17,ACCTATTA,0.232
18,GTTGCACA,-0.0321
19,ATGGGGCA,-0.154
20,AACCACTG,-0.154
21,CTGGAGCA,0.0178
22,CATTTTCG,0.108
23,AGTGTGCG,-0.0954
24,CTTAGGGC,-0.166
25,GACGGGGC,-0.305

row,Sequence,binding signal [E-score]
1,CAGAGTGC,-0.14
2,GAAGTCTA,-0.0217
3,TAACGATA,0.206
4,AGACTGGC,-0.0698
5,CAGGCCGC,-0.316
6,AGACTGAC,-0.144
7,TCGCTTCA,-0.0937
8,GAGGTTAC,-0.00918
9,CCAACCAG,-0.171
10,CGTTGGCA,-0.111
11,AATGGAAC,0.0464
12,AACGGTAC,0.236
13,GAACTGCA,-0.0807
14,CCATTTAA,0.00324
15,ATCTCTAG,-0.00242
16,AGTATCAC,0.104
17,ACAAGTGC,0.0808
18,AATTCCAC,0.13
19,CCTCGTGC,-0.483
20,ACTTCACG,-0.199
21,CGCCTAGA,-0.0948
22,ATCAAAAG,0.0689
23,GGGTGTAC,-0.133
24,TACCGATA,0.291
25,ATGTATTA,0.247

row,Sequence,binding signal [E-score]
1,AGCCAGCA,-0.138
2,GTAGCGGA,-0.0485
3,CCAGTACA,0.162
4,CTGGTGGC,-0.272
5,CGCAGCAC,-0.163
6,AAGCCGCC,-0.367
7,CTATGTAC,0.186
8,AGCTTACT,0.109
9,ATGGTGTC,-0.138
10,AAGTATTA,0.284
11,GAACTGTA,0.151
12,ACGAGACT,-0.0645
13,ACGGCAAA,0.00569
14,CCGTATAC,0.117
15,CCTTCGAG,-0.21
16,AATTCGCG,0.238
17,CCTTTAAA,-0.211
18,CCCTTGCA,-0.306
19,ATCGCTAC,0.032
20,CCCCTAGA,-0.202
21,CCTGGTAA,-0.0716
22,ATTCGAAA,0.159
23,CACGTTAG,-0.0148
24,GCTTTGCA,-0.149
25,CCTGATTA,0.078

row,Sequence,binding signal [E-score]
1,GCGATTGA,-0.187
2,CGCGAACC,-0.158
3,ACACCAGG,-0.249
4,AAATATCC,0.127
5,GAGCGACA,-0.158
6,GTCACCAC,-0.146
7,AGAGGCCG,-0.274
8,ACGCCTGC,-0.26
9,CTAAATTA,0.252
10,CCGTGATA,0.0672
11,AGTTGATG,0.0463
12,CCCCCCAA,-0.272
13,ACCAGTGA,0.0485
14,AGAGAACC,-0.0869
15,ATGAAAGA,0.0746
16,CTCGGCTA,-0.16
17,ACCAAGTA,0.237
18,AGGTTACG,-0.0671
19,AATGTTAA,0.293
20,CTCGTAGC,0.000163
21,TACCGAGA,0.161
22,CTTGAAGC,-0.271
23,CAGAAAGG,-0.206
24,CTGCAGAC,0.0497
25,AGCGCGAC,0.116

row,Sequence,binding signal [E-score]
1,GCCACTCC,-0.293
2,CTGCTCGC,-0.18
3,ATCTACCG,0.409
4,CTACATTA,0.355
5,CGTCCCTA,-0.192
6,AATCTTAG,0.15
7,AAATCCTA,0.231
8,AGCTGGAT,0.00784
9,CCCGAGGG,-0.384
10,GACCCAGA,-0.174
11,CGCACGTA,-0.0812
12,CTACAAAA,0.0496
13,ACGAATGA,0.137
14,AATATCCT,0.102
15,ATCTTTCC,-0.0503
16,GCATGTCC,-0.0171
17,AGCTACAG,0.222
18,ACCGCGGC,-0.192
19,CTACGTGC,-0.144
20,CTGTAAAA,0.0495
21,CCTTTGTC,-0.322
22,AGCTGAGG,-0.175
23,CCCTTTCC,-0.231
24,CTAAATTC,0.251
25,CGCGGGGA,-0.238

row,Sequence,binding signal [E-score]
1,GAGCCTAA,-0.0202
2,AACGCAAC,0.15
3,CCAGATCC,-0.257
4,ACTAGTGG,0.00757
5,AGGTACCA,0.242
6,GTCAACAC,-0.0503
7,GTGAAGCA,-0.11
8,AAGAGACA,-0.131
9,AGGATATG,0.0123
10,ACCCCCAA,-0.46
11,CGAATATC,0.112
12,AGCAAGCC,-0.0687
13,CCTTCGCG,-0.21
14,ACAAGAAT,-0.0153
15,AACCACAG,-0.226
16,ATGCTTGA,0.185
17,CAAAGCGA,-0.0582
18,CGGTCCGC,-0.31
19,ATTTCTCC,0.115
20,ATGACAAC,0.107
21,ACAATAAA,0.114
22,GTGAATTA,0.252
23,GAACTACC,0.338
24,CGACCTAG,0.171
25,ACGTGAAA,0.0502

row,Sequence,binding signal [E-score]
1,ATCAGCGA,-0.128
2,GAGGTCGA,-0.0813
3,CCTTATAG,-0.0511
4,AGTCCTGG,-0.151
5,CAGCTACG,-0.0934
6,CCAACGCC,-0.245
7,ATGGAGTA,0.126
8,GGGGGCAC,-0.426
9,CACCACTC,-0.201
10,CCCATACC,-0.34
11,CATCAAAA,-0.0296
12,ACCGTCAC,-0.0834
13,ACTGACTA,0.187
14,ACACCCTC,-0.18
15,CCACTTCA,0.0146
16,AATAGACC,0.0588
17,GAGATTGC,-0.0917
18,CTACTGGA,0.229
19,CCGCAAGG,-0.381
20,CGGAGAAA,-0.0855
21,CAGAACCG,-0.0752
22,CCTTATAA,-0.0304
23,CACCTTGA,-0.15
24,CAGGTCAA,-0.139
25,GTGACCGA,0.0907

row,Sequence,binding signal [E-score]
1,CAATAACG,0.0291
2,CTCCAGGA,-0.116
3,TAGAGTAA,0.235
4,GCAGTTAC,0.104
5,CACCCGTG,-0.184
6,GACAGTCC,-0.338
7,ATACACAT,0.303
8,AGCGCCAA,-0.156
9,CGAGGCTC,-0.281
10,AGATTCGA,0.137
11,CCTCACAG,-0.0675
12,CTCTGAAC,-0.103
13,ATGCCGCA,-0.0383
14,ATGGTCGG,0.102
15,GGATCGAC,-0.243
16,CACTATAA,0.303
17,GGCCACGA,-0.344
18,CTTTGAGA,-0.257
19,ATTCTAGG,0.143
20,ATCCTGAA,-0.000652
21,CGAATGAA,0.0515
22,GTGGTGTA,0.209
23,ACGCGTAT,0.221
24,CTTTGAGC,-0.133
25,AATACGCC,-0.109

row,Sequence,binding signal [E-score]
1,AGGGTGAA,-0.17
2,GGGTTTGA,-0.178
3,GGGTACGA,-0.0749
4,ATTGCGAG,0.0221
5,GAGTCTCA,-0.171
6,AGTTCGAC,0.0896
7,ATACCATA,0.286
8,ATGACATG,-0.00542
9,CCGGCTGC,-0.336
10,GGGCCAGA,-0.378
11,AGCGATAA,0.03
12,GCTACTTA,0.251
13,CCGACGAA,-0.0484
14,AGCTTGCC,-0.259
15,AAAGTGTG,-0.166
16,AGCAACCC,-0.196
17,CATCGCTC,-0.299
18,GCACAGAC,-0.101
19,AGTTCCAT,0.0525
20,ACCCCCCC,-0.361
21,ATATCGGA,0.136
22,AGCTAATG,0.112
23,ATGCGGAC,0.00024
24,GACCATTA,0.108
25,AACCCAAT,0.0726

row,Sequence,binding signal [E-score]
1,ATGCACAC,-0.0398
2,ACTACCAC,0.347
3,ATCTCAGA,0.101
4,ACACTTAA,-0.00518
5,CTAGTCCC,-0.11
6,TCTTAAAA,0.053
7,TGCTCTAA,-0.0409
8,CTCTGTCC,-0.198
9,GTCTACGA,-0.0706
10,CATTTGGC,-0.00447
11,ATAGTGTA,0.322
12,CATCTTAA,0.196
13,ACCTGCAG,0.0101
14,TTACTGAA,0.255
15,CCGGGTCA,-0.234
16,AGATTAGG,0.0873
17,AGCGTCCC,-0.278
18,AGCGCCTC,-0.268
19,TACATAAA,0.313
20,AGCGTTAC,0.0864
21,AATGGTAA,0.269
22,CCCGCTTC,-0.142
23,CTAACCTC,-0.188
24,ATCGCGAG,-0.0466
25,AGCTATAG,0.283

row,Sequence,binding signal [E-score]
1,AACCAGGC,-0.285
2,TGATTAAA,-0.0452
3,CTGAGGCC,-0.255
4,GAGTCACC,-0.287
5,AACCATCA,0.0264
6,CGATATCG,0.243
7,ACTACGGG,0.00457
8,AAACGATC,0.0216
9,CCTTCAAC,0.0335
10,AAGCGACC,-0.223
11,AGATCCAC,-0.0578
12,CCACGGGG,-0.307
13,GGACAAAA,-0.154
14,AGGAGGAT,-0.148
15,CTCAATGC,-0.156
16,CAGAAATG,0.116
17,CTCTAGTA,0.119
18,AGGAGCAC,-0.361
19,AAACGGAC,-0.0109
20,ACCCTGCG,-0.29
21,CCCTTATA,-0.188
22,CCAAAGCC,-0.341
23,CCGTTGCA,0.0135
24,CTGTCATA,0.00125
25,AACCTCCC,-0.341

row,Sequence,binding signal [E-score]
1,GTCAACTA,0.0259
2,AGGCGAAG,-0.126
3,CTGAGTTC,-0.0518
4,ACGGAAGA,0.00608
5,AACGTATA,0.246
6,ACCCAGAA,-0.0748
7,CGCTAAGC,-0.208
8,CAGCGCGG,-0.234
9,GACGGCTA,-0.342
10,AGAACTCT,0.0641
11,AAGGCAAT,-0.0531
12,TGACTACA,0.197
13,CTTCAATC,-0.195
14,AGCAATGC,0.107
15,ACGGGGGG,-0.314
16,ATCAACCC,-0.0952
17,CAAGACGG,-0.114
18,CTAGTACC,0.202
19,AGCACGAC,0.0109
20,AATTACTG,0.191
21,ATTAACCC,0.0787
22,AATAAAAG,0.0237
23,TAAAAAGA,0.0249
24,CATTCGAA,0.241
25,AATAAGTA,0.249

row,Sequence,binding signal [E-score]
1,CCACCAAC,-0.138
2,CCCGTGCG,-0.367
3,ACCCCCTG,-0.219
4,GAGCGCCA,-0.357
5,GTCCCGTA,-0.00974
6,AGGGGGAG,-0.278
7,ATGATTCC,-0.107
8,GGCATGAA,-0.0167
9,AAAATAGC,0.179
10,AATTCACG,0.177
11,CGGAATAC,0.0622
12,AATAAATT,0.295
13,GCTGAACC,-0.131
14,GAGAAAAC,-0.00588
15,AACCGCAC,-0.0995
16,ATGCCGGC,-0.302
17,CCAGACTC,-0.136
18,GATAAACC,-0.00338
19,CGCCAGTC,-0.237

# Source: paper PMC6212790
